Experimental data taken from PubChem BioAssay AID360 (National Center for Advancing Translational Sciences (NCATS), 2006).
The whole screen tested about 48,000 compounds, of which about 550 (1.1%) were called active. Another 4% or so got no clear call; they are omitted. Cut-off read from the data, not from the text of the source: active = potency below about 15 µM; inconclusive = mostly about 16 µM to 33 µM; inactive = weaker than that. The list shows a part of the results.

Molecular target: Lysosomal acid glucosylceramidase (Homo sapiens) (UniProt P04062)
Assay: Glucocerebrosidase;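 note: the screen sought inhibitors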
Conditions: purified enzyme, resorufin glucoside fluorescence (screen aimed at inhibitors), 20 min
In short: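 Wild-type enzyme at 0.2 nM final in 50mM citric acid/KH2PO4, 10mM sodium taurocholate, 0.01% tween-20, pH 5.9, with resorufin beta-D-glucopyranoside at 30 uM final. Compounds titrated, 20 min at RT, red fluorescence read; AC50 from titration.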
Potency is the fitted concentration of half-maximal effect.

Sequence of UniProt P04062 (P04062 whole entry, looked up): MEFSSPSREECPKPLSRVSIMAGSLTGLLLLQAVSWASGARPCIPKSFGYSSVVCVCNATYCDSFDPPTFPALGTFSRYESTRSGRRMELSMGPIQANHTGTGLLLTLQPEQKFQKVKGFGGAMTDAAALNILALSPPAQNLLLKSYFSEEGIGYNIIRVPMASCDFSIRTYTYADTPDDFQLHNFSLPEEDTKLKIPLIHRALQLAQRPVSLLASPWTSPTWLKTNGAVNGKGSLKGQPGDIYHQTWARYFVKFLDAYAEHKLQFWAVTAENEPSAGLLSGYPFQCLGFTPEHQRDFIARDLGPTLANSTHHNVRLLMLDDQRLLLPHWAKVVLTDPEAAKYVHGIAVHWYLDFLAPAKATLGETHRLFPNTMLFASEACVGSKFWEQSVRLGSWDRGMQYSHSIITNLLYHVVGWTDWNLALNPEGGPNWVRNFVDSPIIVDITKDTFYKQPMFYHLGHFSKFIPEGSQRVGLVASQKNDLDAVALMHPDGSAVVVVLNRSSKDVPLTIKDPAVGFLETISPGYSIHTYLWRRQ

Potency, inactive:
O=S(=O)(Nc1ccc2nc(-c3ccc(Br)o3)[nH]c2c1)c1ccccc1 > 76.9 µM
c1ccc(-n2c(Cc3cn4ccsc4n3)nnc2N2CCOCC2)cc1 > 76.9 µM
Cc1ccc(S(=O)(=O)c2nc(-c3ccccc3)oc2NCc2cccnc2)cc1 > 76.9 µM
c1csc(-c2ccc3ccccc3n2)c1 > 76.9 µM
CCCC(=O)c1cc(F)c(N2CCOCC2)cc1C > 76.9 µM
CCCCNC(=O)c1ccc(N2CCOCC2)c(NS(=O)(=O)c2ccc(OC)cc2)c1 > 76.9 µM
Cn1c(Cc2ccccc2)nnc1SCC(=O)Nc1ccc2c(c1)OCCO2 > 76.9 µM
CCC(C)(C(=O)NC1CCCCC1)N(C)C(=O)c1ccccn1 (stereo unspecified) > 76.9 µM
COc1ccc(NC(=O)Nc2cc(C)ccc2OC)cc1 > 76.9 µM
Nc1c(C(=O)NCCc2ccccc2)nnn1Cc1ccccc1 > 76.9 µM
Cc1noc(C)c1COC(=O)CCOc1ccccc1 > 76.9 µM
CCCOc1ccc(OCCSc2ncccn2)cc1 > 76.9 µM
CCCc1nnc(SCC(=O)N2CCOCC2)n1CCCOC > 76.9 µM
O=C(OCC(=O)c1ccc(S(=O)(=O)N2CCCC2)cc1)C1=COCCO1 > 76.9 µM
CCOC(=O)c1c(C)nc2c3ccccc3ccn12 > 76.9 µM
CCC(CC)c1nnc(NS(=O)(=O)Cc2ccccc2)s1 > 76.9 µM
COc1cccc(CC(=O)Nc2nccs2)c1 > 76.9 µM
COCCCNc1nc2c([nH]1)c(=O)[nH]c(=O)n2C > 76.9 µM
CCn1cc(Br)c(C(=O)Nc2ccc(OC)cc2)n1 > 76.9 µM
COc1cc(C2c3sc(=O)[nH]c3SC3C4CCC(C4)C23)ccc1O (stereo unspecified) > 76.9 µM
Cc1cccc(OCc2nnc(SCn3nnc4ccccc4c3=O)o2)c1 > 76.9 µM
O=C(Nc1ccc2oc(-c3ccncc3)nc2c1)c1cccs1 > 76.9 µM
CC1(C)NC(=O)N(CN2C(=O)NC(C)(C)C2=O)C1=O > 76.9 µM
CC(C)CC1(C)NC(=O)N(CCN2C(=O)c3ccccc3C2=O)C1=O (stereo unspecified) > 76.9 µM
FC(F)(F)c1cc(-c2ccccc2)nc(N2CCCCC2)n1 > 76.9 µM
Cc1cccc(Cn2c(N3CCN(c4ccccc4)CC3)nc3c2c(=O)n(C)c(=O)n3C)c1 > 76.9 µM
Cc1ccc(-c2nnc(SCC(=O)Nc3nc4c(s3)CCCC4)n2C)cc1 > 76.9 µM
O=C(Cn1nc(-c2ccccc2)ccc1=O)NCc1ccc2c(c1)OCO2 > 76.9 µM
COc1ccc(S(=O)(=O)N2Cc3ccccc3CC2C(=O)Nc2nccs2)cc1OC (stereo unspecified) > 76.9 µM
COc1cccc(C2=NOC(C(=O)NC3CCCCC3)C2)c1 (stereo unspecified) > 76.9 µM
O=C(OCC(=O)N1CCOCC1)c1ccc2c(c1)OCCO2 > 76.9 µM
Cc1c(Cl)cccc1N1C(=O)CC(N(O)c2ccccc2)C1=O (stereo unspecified) > 76.9 µM
CCSc1nc(-c2ccco2)ccc1C#N > 76.9 µM
CCN(CC)c1ccc(NC(=O)CN2CCN(CC(=O)Nc3ccc(F)cc3)CC2)cc1 > 76.9 µM
COC(=O)c1ccc(CN2CCN(Cc3ccc(C(=O)OC)o3)CC2)o1 > 76.9 µM
c1ccc(-c2nnc(CSc3nc4ccccc4[nH]3)o2)cc1 > 76.9 µM
COc1ccc(C(=O)Nc2cccc(N(C)S(C)(=O)=O)c2)cc1OC > 76.9 µM
CCOC(=O)CSC1=C(C#N)C(c2ccccc2OCC)C(C(=O)OCC)C(=O)N1 (stereo unspecified) > 76.9 µM
Cc1cc(NC(=O)Nc2cc(C)nn2-c2ccccc2)n(-c2ccccc2)n1 > 76.9 µM
OCc1nc2ccccc2n1CC(O)COc1ccccc1 (stereo unspecified) > 76.9 µM
COC(=O)CSc1nnc(-c2ccc(OC)cc2OC)o1 > 76.9 µM
COc1ccc(CCNC(=O)C2CCCCC2C(=O)O)cc1OC (stereo unspecified) > 76.9 µM
CN(c1ccc(F)cc1)S(=O)(=O)c1ccc2[nH]cc(C(=O)O)c(=O)c2c1 > 76.9 µM
O=C(c1ccncc1)N1CCN(C(=O)c2ccncc2)CC1 > 76.9 µM
COC(=O)c1cc(=O)nc2sc3ccccc3n12 > 76.9 µM
c1ccc(-c2oc3ncnc(N4CCOCC4)c3c2-c2ccccc2)cc1 > 76.9 µM
O=C(c1nc2nc(-c3ccc(Cl)cc3)cc(C(F)(F)F)n2n1)N1CCOCC1 > 76.9 µM
Cc1c(NC(=O)c2cc(-c3ccco3)on2)c(=O)n(-c2ccccc2)n1C > 76.9 µM
CCOC(=O)N1CCN(C(=O)c2cc(-c3ccc(F)cc3)[nH]c2C)CC1 > 76.9 µM
Cc1csc(SCc2nnc(-c3ccccc3Br)o2)n1 > 76.9 µM
CCCc1cc(N2CCCC(C(=O)Nc3ccc(OC)cc3OC)C2)n2ncnc2n1 (stereo unspecified) > 76.9 µM
C/C(N)=C(/C#N)C(=O)CSc1nnc(Cc2ccccc2F)n1N > 76.9 µM
COC(=O)c1[nH]c2cccc(OC)c2c1NC(=O)CCN1CC(C)CC(C)C1 (stereo unspecified) > 76.9 µM
CC1=CC(C)(C)N2C(=O)C3(C(C#N)=C(N)Oc4cc(C)oc(=O)c43)c3cccc1c32 (stereo unspecified) > 76.9 µM
O=C1OC(NC(=O)c2ccccc2)C(n2cc(CO)nn2)=C1Cl (stereo unspecified) > 76.9 µM
CCOC(=O)c1ccc(NC(=O)CCc2c(C)nc3ncnn3c2C)cc1 > 76.9 µM
C/C(=C1/SC(N2CC(C)OC(C)C2)=NC1=O)c1ccccc1 (stereo unspecified) > 76.9 µM
COc1ccc(NC(=O)c2ccc3c(c2)OCO3)cc1Cl > 76.9 µM
CN1CCN(C(CNS(=O)(=O)c2ccc(F)cc2)c2cccnc2)CC1 (stereo unspecified) > 76.9 µM
COC(=O)c1ccccc1NC(=O)CN(CCc1ccccc1)S(C)(=O)=O > 76.9 µM
COC(=O)C1C(=O)NC(SC)=C(C#N)C1c1ccccc1F (stereo unspecified) > 76.9 µM
Oc1ccc(N2CCN(C(c3cccnc3)c3nnnn3Cc3ccccc3)CC2)cc1 (stereo unspecified) > 76.9 µM
CC(C)COC(=O)Nc1ccccc1C(=O)N1CCOCC1 > 76.9 µM
Cc1nn(-c2ccccc2)c(C)c1NC(=O)c1ccc(S(=O)(=O)N2CCCC2)cc1 > 76.9 µM
CCCN1C(=O)c2ccc(C(=O)NC3=NCCS3)cc2C1=O > 76.9 µM
O=C(COCCOCC(=O)N(c1ccccn1)C1CCCCC1)N(c1ccccn1)C1CCCCC1 > 76.9 µM
COc1ccc(-c2noc(-c3ccccc3C(=O)NCc3ccco3)n2)cc1 > 76.9 µM
COc1ccc(CC(NC(C)=O)C(=O)N2CCN(C(=O)N(C(C)C)C(C)C)CC2)cc1 (stereo unspecified) > 76.9 µM
COC(=O)c1ccccc1NC(=O)c1cc2sccc2n1C > 76.9 µM
CCOC(=O)CSc1nc2c(c(=O)[nH]c(=O)n2C)n1CCc1ccccc1 > 76.9 µM
c1ccc(Nc2nn[nH]n2)cc1 > 76.9 µM
CCCn1c(SCC(=O)Nc2c(CC)cccc2CC)nnc1C(C)C > 76.9 µM
CCOC(=O)c1nnn(-c2nonc2N)c1CSc1ccccn1 > 76.9 µM
N#CC1(c2c(O)nc3n(c2=O)CCCS3)CCCCC1 > 76.9 µM
O=C(c1ccccc1NS(=O)(=O)c1cccs1)N1CCCC1 > 76.9 µM
Cc1ccc(C(=O)NCc2ccc3c(c2)OCO3)cc1S(=O)(=O)N1CCOCC1 > 76.9 µM
O=C(O)CN1CCOCCOCCN(CC(=O)O)CCOCCOCC1 > 76.9 µM
CCCOc1ccc(/C(O)=C2/C(=O)C(=O)N(CCCOC)C2c2ccncc2)cc1 (stereo unspecified) > 76.9 µM
COc1nnc(-c2ccc(N3CCCCC3)c(N)c2)c2ccccc12
COc1cccc(Nc2nc(-c3sc(N)nc3C)cs2)c1
COc1nc2ccccc2cc1-c1noc(-c2cccnc2)n1 > 76.9 µM
CCCn1c(=O)c2ccccc2n2c(SCC(=O)c3cc(C)n(CC4CCCO4)c3C)nnc12 (stereo unspecified) > 76.9 µM
CC(=O)c1c(C)[nH]c(C(=O)NCCN2CCC(C)CC2)c1C > 76.9 µM
OC(COc1ccc2cc(Br)ccc2c1)CN1CCCC1 (stereo unspecified) > 76.9 µM
Nc1ccc(-c2nc3ccc(-c4nc5ccccc5o4)cc3[nH]2)cc1 > 76.9 µM
OCc1nn2c(c1Br)NC(c1ccccc1)CC2C(F)(F)F (stereo unspecified) > 76.9 µM
CC(C)C(C(=O)NCC1CCCO1)N(Cc1ccco1)C(=O)CNS(=O)(=O)c1ccc(F)cc1 (stereo unspecified) > 76.9 µM
CC(C)N1C(=O)c2ccccc2C1C(=O)NC1CCCCCC1 (stereo unspecified) > 76.9 µM
COc1cccc(-n2c(COc3ccccc3C)nnc2SCC(=O)O)c1 > 76.9 µM
CCOC(=O)C1=C(c2ccccc2)Nc2ncnn2C1c1cc(OC)cc(OC)c1OC (stereo unspecified) > 76.9 µM
NC(=O)CSc1nnc2sc3ccccc3n12 > 76.9 µM
